Source: the supplement of paper PMC4894684
Structures can show the parent of a compound that is named as a salt. ± gives the standard deviation of the averaged measurements. Screen size: about 1,000 compounds; about 15 (2%) showed an effect of 50% or more. The list shows a part of the results.
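Further: confluent HFF monolayers, run in parallel with the Toxoplasma growth screen as a host toxicity counterscreen.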

The compounds below were run on HFF (assay: uninfected host cell viability relative to vehicle control; higher = less host cell toxicity). Conditions: 5 µM; 72 h; oxygen 21 %.
For COc1c(C)c2c(c(O)c1C/C=C(\C)CCC(=O)O)C(=O)OC2 [Mycophenolic acid], the “uninfected host cell viability” value was 88.36 ± 0.65%. CC(C)NC[C@H](O)COc1cccc2ccccc12 [(S)-(-)-Propranolol hydrochloride] was tested, and the “uninfected host cell viability” value was 90.2 ± 3%. For O=c1c(-c2ccc(O)cc2)coc2cc(O)ccc12 [Daidzein], the “uninfected host cell viability” value was 94.9 ± 3.5%. In the case of OCC1OC(n2cnc3c(NC4CCCC4)nc(Cl)nc32)C(O)C1O (centres undefined) [2-Chloro-N6-cyclopentyladenosine], the “uninfected host cell viability” value is reported as 91.4 ± 8.7%. In the case of N[C@@H](Cc1cc(CP(=O)(O)O)cc(-c2ccccc2Cl)c1)C(=O)O, the “uninfected host cell viability” value is reported as 88.9 ± 6%. With CC(=O)N(OCc1ccccc1)[C@H]1c2cc(C#N)ccc2OC(C)(C)[C@H]1O the “uninfected host cell viability” value was 98.6 ± 2.8%. With O=C(O)C=C1CCCc2ccccc2C1O (centres undefined) the “uninfected host cell viability” value was 83.32 ± 0.084%. With NCC(O)(CS(=O)(=O)O)c1ccc(Cl)cc1 (centres undefined) [2-Hydroxysaclofen] the “uninfected host cell viability” value was 88.5 ± 1.9%. With CC[C@H](NC(=O)c1c(C)c(-c2ccccc2)nc2ccccc12)c1ccccc1 the “uninfected host cell viability” value was 89.34 ± 0.64%. With CCOC(=O)c1ncn2c1CN(C)C(=O)c1cc(F)ccc1-2 [Flumazenil] the “uninfected host cell viability” value was 87.4 ± 1.9%. In the case of CC(C1=C(CCN(C)C)Cc2ccccc21)c1ccccn1 (stereo in doubt) [(S)-(+)-Dimethindene maleate], the “uninfected host cell viability” value is reported as 94.3 ± 0.97%. For O=C(O)Cc1ccc(OCCNC[C@H](O)c2ccccc2)cc1 [ZD 2079 hydrochloride], the “uninfected host cell viability” value was 87.2 ± 4.2%. COC(=O)c1c(C)[nH]c(C)c1C(=O)c1ccccc1Cc1ccccc1 was tested, and the “uninfected host cell viability” value was 85 ± 2.6%. CC(C)n1nnc2cc(C(=O)O)ccc21 was tested, and the “uninfected host cell viability” value was 100 ± 2.3%. CCCC1O[C@@H]2C[C@H]3[C@@H]4CCC5=CC(=O)C=C[C@]5(C)[C@H]4[C@@H](O)C[C@]3(C)[C@]2(C(=O)CO)O1 (some centres undefined) [Budesonide] was tested, and the “uninfected host cell viability” value was 96.6 ± 3.2%. Cc1ccccc1C(=O)c1ccc(Nc2ccc(Br)cc2N)cc1Cl was tested, and the “uninfected host cell viability” value was 84 ± 2.2%. With c1ccc(C(O[C@@H]2CCCN(CCc3ccc4c(c3)OCO4)C2)c2ccccc2)cc1 [Zamifenacin fumarate] the “uninfected host cell viability” value was 90.5 ± 1%. With CC(C)NCC(O)c1ccc(O)c(O)c1 (centres undefined) [Isoproterenol hydrochloride] the “uninfected host cell viability” value was 77.4 ± 5.1%. With Oc1ccc(-c2c(-c3ccccc3)nn3c(C(F)(F)F)cc(C(F)(F)F)nc23)cc1 the “uninfected host cell viability” value was 99.2 ± 3.1%. With Nc1nc2c(ncn2COCCO)c(=O)[nH]1 [Acyclovir] the “uninfected host cell viability” value was 94.7 ± 3.5%. O=S(=O)(c1ccccc1)N(CC(F)(F)F)c1ccc(C(O)(C(F)(F)F)C(F)(F)F)cc1 was tested, and the “uninfected host cell viability” value was 90.3 ± 6.8%. With C[C@H](NC[C@H](O)CP(=O)(O)CC1CCCCC1)c1ccc(Cl)c(Cl)c1 the “uninfected host cell viability” value was 84.83 ± 0.31%. With CCOc1cc(CC(=O)N[C@@H](CC(C)C)c2ccccc2N2CCCCC2)ccc1C(=O)O [Repaglinide] the “uninfected host cell viability” value was 93.7 ± 2.1%. O=C(CCCCCN1C(=O)c2cccc3cccc(c23)C1=O)NO [Scriptaid] was tested, and the “uninfected host cell viability” value was 57.5 ± 1.4%.
